Screen size: about 220,000 compounds; about 16,000 (7.3%) were called active. This list was built around the results that the source calls inconclusive (neither active nor inactive); the mix of calls is not that of the screen. Calls come from the whole dose curve; as a rule, active = well fitted inhibition curve with a large enough effect (not every such curve was filed as active); inconclusive = small, poorly fitted or top-dose-only effect, or another doubt; inactive = no such curve, though single readings can be large or run the other way. Potencies of inconclusive entries are left out as doubtful fits.
target: Aldehyde dehydrogenase 1A1 (Homo sapiens) (UniProt P00352); experiment: qHTS Assay for Inhibitors of Aldehyde Dehydrogenase 1 (ALDH1A1); details: Purified ALDH1A1, NADH fluorescence, propionaldehyde substrate; series mostly up to 75.3 µM
Potency is the fitted concentration of half-maximal effect; tags give direction and shape of the fitted curve.

UniProt P00352, sequence (P00352 whole entry, looked up): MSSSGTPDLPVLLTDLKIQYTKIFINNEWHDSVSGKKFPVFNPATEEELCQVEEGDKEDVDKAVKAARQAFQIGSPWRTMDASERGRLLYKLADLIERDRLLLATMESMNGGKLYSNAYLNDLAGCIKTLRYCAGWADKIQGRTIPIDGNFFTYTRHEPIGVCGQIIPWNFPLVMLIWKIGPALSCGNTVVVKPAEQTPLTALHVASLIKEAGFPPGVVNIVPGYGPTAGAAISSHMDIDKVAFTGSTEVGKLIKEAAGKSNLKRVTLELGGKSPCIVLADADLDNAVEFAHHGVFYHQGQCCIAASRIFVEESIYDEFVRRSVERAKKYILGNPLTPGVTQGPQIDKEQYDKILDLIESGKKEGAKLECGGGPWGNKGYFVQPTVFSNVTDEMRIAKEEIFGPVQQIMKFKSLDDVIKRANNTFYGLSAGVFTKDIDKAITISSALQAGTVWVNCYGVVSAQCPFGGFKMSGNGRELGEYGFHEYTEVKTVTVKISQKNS

Q: `O=c1oc2ccccc2cc1-c1ccccc1` was tested. Which Potency did it give?
A: The Potency was inconclusive [inhibitor, single point].

Q: For `N#C/C(=C/c1ccc(C(=O)O)cc1)C(=O)Nc1ccccc1`, which Potency is on record?
A: The Potency was “inactive”.

Q: For `O=C(COc1cccc2cccnc12)Nc1nccs1`, which Potency is on record?
A: Its Potency is inconclusive [inhibitor, partial curve].

Q: Which Potency does the source give for `COc1ccc(-c2cc([C@H](O)C3CCCCN3)c3ccccc3n2)cc1` (stereo partly drawn) here?
A: Its Potency is inconclusive [inhibitor, partial curve].

Q: For `COc1cccc(NC(=O)C(Sc2nnnn2C)c2ccccc2)c1` (stereo not drawn), which Potency is on record?
A: The Potency was “inactive”.

Q: `C=CCNc1nnc(SC2CC(=O)N(c3ccc(OC)cc3)C2=O)s1` (stereo not drawn) was tested. Which Potency did it give?
A: Its Potency is active: 2 µM.

Q: How did the Potency turn out when `CNC(=O)/C(C#N)=C/c1cn(CC(=O)NCc2ccco2)c2ccccc12` was run?
A: Its Potency is inconclusive [inhibitor, single point].

Q: Which Potency does the source give for `CC1(C)CC(=O)C2=C(C1)OC(N)=C(C#N)C21CCC2(CC1)OCCO2` here?
A: The Potency was inconclusive [inhibitor, single point].

Q: Which Potency does the source give for `O=C(O)CCCNc1ccc(S(=O)(=O)Nc2ccccc2C(=O)O)cc1C(=O)O` here?
A: Its Potency is inconclusive [inhibitor, single point].

Q: For `CCOC(=O)N1CCN(C2CC(=O)N(c3ccc(Oc4ccccc4)cc3)C2=O)CC1` (stereo not drawn), which Potency is on record?
A: The Potency was inconclusive [inhibitor, single point].

Q: `Cc1ccc2c(n1)sc1c(-c3ccc(Br)cc3)c(C#N)c(N)nc12` was tested. Which Potency did it give?
A: The Potency was inconclusive [inhibitor, partial curve].

Q: For `Nc1cc2sc(-c3ccc(C(=O)O)cc3)nc2cc1Cl`, which Potency is on record?
A: The Potency was inconclusive [inhibitor, partial curve].

Q: Which Potency does the source give for `COc1ccc(N(CC(=O)NC2CCCCCC2)S(=O)(=O)c2c(C)nn(C)c2C)cc1` here?
A: Its Potency is inconclusive [inhibitor, partial curve].

Q: For `O=[N+]([O-])c1cccc(C2Nc3cccc4cccc(c34)N2)c1`, which Potency is on record?
A: The Potency was inconclusive [inhibitor, single point].

Q: For `CNc1cc([N+](=O)[O-])ccc1N/C=C/C(=O)c1cccs1`, which Potency is on record?
A: The Potency was inconclusive [inhibitor, single point].

Q: Which Potency does the source give for `Fc1ccc(CNC(=S)Nc2cccc(Cl)c2)cc1` here?
A: Its Potency is inconclusive [inhibitor, partial curve, poor fit].

Q: Which Potency does the source give for `O=C(c1ccc(COc2c(F)c(F)c(F)c(F)c2F)o1)N1CCN(Cc2ccc3c(c2)OCO3)CC1` here?
A: The Potency was inconclusive [inhibitor, single point].

Q: With `CCOCCCNC(=S)NCCCNc1nc2c(C)cc(C)cc2cc1C#N` as the compound, how does the Potency read?
A: The Potency was inconclusive [inhibitor, partial curve].

Q: `CCn1c(-c2csc(C(C)C)c2)n[nH]c1=S` was tested. Which Potency did it give?
A: The Potency was active: 15.8 µM.

Q: Which Potency does the source give for `COc1ccc(Nc2nnc(-c3ccc(O)cc3)c3ccccc23)cc1C(N)=O` here?
A: Its Potency is “inactive”.

Q: For `Cc1ccc(C(=O)Oc2cccc(NC(=O)c3ccco3)c2)cc1S(=O)(=O)N1CCC(C)CC1`, which Potency is on record?
A: The Potency was “inactive”.

Q: `CCC(CC)C(=O)N1CC(=O)Nc2ccc(Br)cc2C1c1ccccc1` (stereo not drawn) was tested. Which Potency did it give?
A: Its Potency is “inactive”.

Q: `COc1ccc(OCC(=O)Nc2c3c(nn2C(C)(C)C)CSC3)cc1` was tested. Which Potency did it give?
A: The Potency was inconclusive [inhibitor, single point].

Q: Which Potency does the source give for `N#Cc1cc([N+](=O)[O-])ccc1NC(=O)COC(=O)C12CC3CC(CC(C3)C1)C2` here?
A: The Potency was active: 22.4 µM.

Q: With `COCCNCCOc1ccccc1-c1ccccc1` as the compound, how does the Potency read?
A: The Potency was “inactive”.

Q: For `CC(C)Sc1nc2c(c(=O)[nH]c(=O)n2C)n1Cc1ccc(Cl)cc1`, which Potency is on record?
A: Its Potency is active: 35.5 µM.

Q: `COc1ccc2nc(NC(=O)CSc3nnnn3C)sc2c1` was tested. Which Potency did it give?
A: The Potency was “inactive”.

Q: How did the Potency turn out when `NNC(=O)c1cc(-c2cccs2)nc2ccccc12` was run?
A: Its Potency is inconclusive [inhibitor, partial curve].

Q: Which Potency does the source give for `CCCn1c(=NC(=O)c2ccco2)c(C(=O)OCC)cc2c(=O)n3ccccc3nc21` here?
A: Its Potency is inconclusive [inhibitor, single point].

Q: `COc1ccc(-n2c(Cc3cccn3C)nnc2SCC(=O)Nc2ccc3c(c2)OCCO3)cc1` was tested. Which Potency did it give?
A: The Potency was active: 1 µM.

Q: For `CCOC(=O)C1=C(C)NC(=O)/C1=C\N(C)C`, which Potency is on record?
A: Its Potency is inconclusive [inhibitor, single point].

Q: With `COc1ccc(NC(=O)C(c2ccc(OC)cc2)N(C)C(=O)c2cnccn2)cc1` (stereo not drawn) as the compound, how does the Potency read?
A: The Potency was inconclusive [inhibitor, single point].

Q: With `Cc1c(Cl)cccc1NCC(=O)NN=C1CCCC1` as the compound, how does the Potency read?
A: Its Potency is “inactive”.

Q: For `COCCn1c(NC(=S)NC(=O)C2CC2)cc(=O)[nH]c1=O`, which Potency is on record?
A: Its Potency is active: 0.631 µM.

Q: For `Cc1ccc(Nc2nnc(SCC(=O)Nc3cccnc3Cl)s2)cc1C`, which Potency is on record?
A: Its Potency is inconclusive [inhibitor, partial curve].

Q: `Cc1onc(-c2c(F)cccc2Cl)c1C(=O)Nc1nc2ccccc2[nH]1` was tested. Which Potency did it give?
A: Its Potency is inconclusive [inhibitor, single point].

Q: For `N#Cc1ccc(Oc2ccc(-c3nc4ccccc4nc3-c3ccccc3)cc2)cc1C#N`, which Potency is on record?
A: The Potency was inconclusive [inhibitor, single point].

Q: With `COc1ccccc1OCc1ccc(C(=O)N/N=C/c2ccco2)cc1` as the compound, how does the Potency read?
A: The Potency was “inactive”.

Q: Which Potency does the source give for `COC(=O)[C@@H](N)Cc1ccc(O)c(O)c1` here?
A: The Potency was “inactive”.

Q: Which Potency does the source give for `O=C(NCc1cccc(Cl)c1)c1ccc2nc[nH]c2c1` here?
A: Its Potency is “inactive”.

Q: `CCn1nc(C)c(NS(=O)(=O)c2ccccc2)c1C` was tested. Which Potency did it give?
A: Its Potency is “inactive”.

Q: `CCn1cc([N+](=O)[O-])c(C(=O)N2CCCC2)n1` was tested. Which Potency did it give?
A: The Potency was inconclusive [inhibitor, single point].

Q: `CCc1ccc(C(=O)NNc2ccc(Cl)cc2)cc1` was tested. Which Potency did it give?
A: The Potency was inconclusive [inhibitor, single point].

Q: How did the Potency turn out when `C=CCNc1nc2ccccc2nc1NS(=O)(=O)c1cccs1` was run?
A: The Potency was inconclusive [inhibitor, single point].

Q: With `COc1ccc(S(=O)(=O)N2CC3C4C=CC(C4)C3C2)cc1` (stereo not drawn) as the compound, how does the Potency read?
A: The Potency was inconclusive [inhibitor, single point].

Q: Which Potency does the source give for `CCOc1cc(C2C(C(=O)OC(C)C)=C(C)N=C3SCCC(=O)N32)ccc1OC(C)=O` (stereo not drawn) here?
A: Its Potency is inconclusive [inhibitor, single point].

Q: For `COCCNC(=O)CC(NS(=O)(=O)c1ccc(C)cc1)c1ccco1` (stereo not drawn), which Potency is on record?
A: Its Potency is inconclusive [inhibitor, partial curve, poor fit].

Q: `CC1=C(C(=O)Nc2ccccc2C)C(c2ccc(C)o2)NC(=S)N1` (stereo not drawn) was tested. Which Potency did it give?
A: Its Potency is inconclusive [inhibitor, partial curve].

Q: Which Potency does the source give for `CSc1nc(=S)n(Cc2ccccc2)c(C)c1C(C)=O` here?
A: The Potency was inconclusive [inhibitor, single point].

Q: For `CCCn1cnc2cc(NCc3ccccn3)ccc21`, which Potency is on record?
A: The Potency was inconclusive [inhibitor, single point].

Q: With `O=C(CCc1ccccc1)NNc1ccc(F)cc1` as the compound, how does the Potency read?
A: The Potency was “inactive”.

Q: `CCCCC(=O)Nc1nn(C)c2nc3c(C)cccc3cc12` was tested. Which Potency did it give?
A: The Potency was inconclusive [inhibitor, single point].

Q: With `Cc1ccc(NC(=O)C2CCN(S(=O)(=O)c3ccccc3)CC2)cc1` as the compound, how does the Potency read?
A: Its Potency is inconclusive [inhibitor, single point].

Q: `COc1ccc(-c2nnc3ccc(SCC(=O)Nc4cc(C)on4)nn23)cc1OC` was tested. Which Potency did it give?
A: Its Potency is inconclusive [inhibitor, single point].

Q: Which Potency does the source give for `COc1ccccc1/C=C/C=N/NC(=O)c1ccc(=O)n(C)c1` here?
A: The Potency was inconclusive [inhibitor, single point].

Q: For `CCOc1ccc2ncc(S(=O)(=O)c3ccc(C)cc3)c(N3CCC4(CC3)OCCO4)c2c1`, which Potency is on record?
A: The Potency was active: 3.16 µM.

Q: With `COc1ccc(-c2csc(NC(=O)C3CC(=O)N(Cc4ccco4)C3)n2)cc1` (stereo not drawn) as the compound, how does the Potency read?
A: Its Potency is inconclusive [inhibitor, single point].

Q: Which Potency does the source give for `CN(C)/C=N/c1nc2nccc(-c3ccc(Cl)cc3)n2n1` here?
A: The Potency was inconclusive [inhibitor, partial curve].

Q: For `COc1ccc(OC)c(NC(=O)C2CC(=O)N(c3ccc(Br)cc3)C2)c1` (stereo not drawn), which Potency is on record?
A: The Potency was “inactive”.

Q: How did the Potency turn out when `COc1ccc2c(c1)c(CC(=O)O)c(C)n2Cc1ccc(Cl)cc1` was run?
A: Its Potency is active: 25.1 µM.

Q: For `COC(=O)c1ccc(C(=O)OC)c(NC(=S)N2CCOCC2)c1`, which Potency is on record?
A: The Potency was inconclusive [inhibitor, partial curve].

Q: With `COc1ccc(OC)c(/C=C/C(=O)OCC(=O)c2c(N)n(C)c(=O)n(C)c2=O)c1` as the compound, how does the Potency read?
A: Its Potency is inconclusive [inhibitor, partial curve].

Q: `O=C(OCC(=O)c1c[nH]c2ccccc12)c1cc2ccccc2cc1O` was tested. Which Potency did it give?
A: The Potency was “inactive”.

Q: `CO[C@@H]1COC(=O)CCC[C@@H](C)[C@H](OC)COC(=O)[C@H](Cc2ccccc2)NC(=O)C/C=C\[C@H]1C` was tested. Which Potency did it give?
A: Its Potency is active: 0.0158 µM.

Q: Which Potency does the source give for `CC1=CC=CC2=NC(=O)CC(C)(C(=O)O)N12` (stereo not drawn) here?
A: Its Potency is inconclusive [inhibitor, partial curve].

Q: `COC(=O)C1=C(C)N(C(C)c2ccccc2)C(=O)/C1=C\c1ccco1` (stereo not drawn) was tested. Which Potency did it give?
A: Its Potency is “inactive”.

Q: `CCn1nnnc1SCC(=O)c1cc(OC)ccc1OC` was tested. Which Potency did it give?
A: The Potency was active: 14.1 µM.

Q: Which Potency does the source give for `COCCNC(=O)C(C)N1c2cccc3cccc(c23)S1(=O)=O` (stereo not drawn) here?
A: Its Potency is inconclusive [inhibitor, single point].

Q: Which Potency does the source give for `NC(N)=Nc1nc2ccc(Br)cc2c(=O)[nH]1` here?
A: Its Potency is “inactive”.

Q: `Cc1cccc(CC2CC(=O)N(C3CCCCC3)C2=O)c1` (stereo not drawn) was tested. Which Potency did it give?
A: The Potency was inconclusive [inhibitor, partial curve].

Q: `S=c1[nH]nc(-c2ccc(Br)cc2)n1Cc1ccccc1` was tested. Which Potency did it give?
A: Its Potency is inconclusive [inhibitor, partial curve].

Q: Which Potency does the source give for `CCC(CC)C(=O)OCC(=O)Nc1cc(OC)c([N+](=O)[O-])cc1C` here?
A: The Potency was “inactive”.

Q: With `O=c1oc2ccccc2nc1/C=C(O)/C=C\c1ccccc1` as the compound, how does the Potency read?
A: The Potency was active: 12.6 µM.

— PubChem BioAssay AID1030 (National Center for Advancing Translational Sciences (NCATS), 2008)
